Test results from the antibiotic and cytotoxicity screens of Wong et al. (2023).
This is one part of the list.

Legend:
[1] = system: HSkMC (human skeletal muscle cells); assay: cytotoxicity call (relative viability < 0.9); settings: 10 µM
[2] = system: HepG2; assay: cytotoxicity call (relative viability < 0.9); settings: 10 µM
[3] = system: S. aureus RN4220; assay: growth inhibition call (relative growth <= 0.2); settings: 50 µM

Structure (SMILES): C[C@@H]1CCCCO[C@H](CN(C)S(=O)(=O)c2cn(C)cn2)[C@@H](C)CN([C@H](C)CO)C(=O)c2cc(NS(=O)(=O)c3cccs3)ccc2O1
- cytotoxicity call [1]: inactive
- cytotoxicity call [2]: inactive
- growth inhibition call [3]: inactive

Structure (SMILES): C[C@@H]1CN([C@H](C)CO)S(=O)(=O)c2ccc(-c3cncnc3)cc2O[C@H]1CN(C)C(=O)CN(C)C
- cytotoxicity call [1]: inactive
- cytotoxicity call [2]: inactive
- growth inhibition call [3]: inactive

Structure (SMILES): COc1ccc(S(=O)(=O)N(C)C[C@H]2OCCCC[C@H](C)Oc3ccc(NC(=O)Nc4cccc5ccccc45)cc3C(=O)N([C@H](C)CO)C[C@@H]2C)cc1
- cytotoxicity call [1]: inactive
- cytotoxicity call [2]: inactive
- growth inhibition call [3]: inactive

Structure (SMILES): CC(C)NC(=O)Nc1ccc2c(c1)C(=O)N([C@H](C)CO)C[C@@H](C)[C@H](CN(C)Cc1ccc3c(c1)OCO3)O2
- cytotoxicity call [1]: inactive
- cytotoxicity call [2]: inactive
- growth inhibition call [3]: inactive

Structure (SMILES): COc1ccc(NC(=O)N(C)C[C@@H]2Oc3c(NC(=O)C4CC4)cccc3C(=O)N([C@H](C)CO)C[C@H]2C)cc1
- cytotoxicity call [1]: inactive
- cytotoxicity call [2]: inactive
- growth inhibition call [3]: inactive

Structure (SMILES): C[C@@H]1CN([C@H](C)CO)C(=O)c2cccc(NC(=O)Nc3ccc(F)cc3)c2O[C@@H]1CN(C)Cc1ccc(C(=O)Nc2ccccc2N)cc1
- cytotoxicity call [1]: inactive
- cytotoxicity call [2]: inactive
- growth inhibition call [3]: inactive

Structure (SMILES): CC(C)N1CC[C@@H](CN(C)Cc2ccc(Oc3ccccc3)cc2)Oc2c(NC(=O)c3ccncc3)cccc2C1=O
- cytotoxicity call [1]: inactive
- cytotoxicity call [2]: inactive
- growth inhibition call [3]: inactive

Structure (SMILES): C[C@@H]1CCCCO[C@@H](CN(C)Cc2ccncc2)[C@H](C)CN([C@H](C)CO)C(=O)c2cc(NC(=O)Nc3cccc4ccccc34)ccc2O1
- cytotoxicity call [1]: inactive
- cytotoxicity call [2]: inactive
- growth inhibition call [3]: inactive

Structure (SMILES): CN(CC(=O)O)C1CCCC1
- cytotoxicity call [1]: inactive
- cytotoxicity call [2]: inactive
- growth inhibition call [3]: inactive

Structure (SMILES): O=C(C[C@H]1CC[C@@H]2[C@H](COC[C@H](O)CN2C(=O)Nc2ccc(F)cc2)O1)NCCCN1CCOCC1
- cytotoxicity call [1]: inactive
- cytotoxicity call [2]: inactive
- growth inhibition call [3]: inactive

Structure (SMILES): C[C@@H]1CCCCO[C@H](CN(C)Cc2ccccc2)[C@@H](C)CN([C@@H](C)CO)C(=O)c2cc(NC(=O)c3ccccc3)ccc2O1
- cytotoxicity call [1]: inactive
- cytotoxicity call [2]: inactive
- growth inhibition call [3]: inactive

Structure (SMILES): O[C@H]1[C@H](O)[C@@H](O)[C@H](O)[C@H](O)[C@H]1O
- cytotoxicity call [1]: inactive
- cytotoxicity call [2]: inactive
- growth inhibition call [3]: inactive

Structure (SMILES): CC1(C)SC2C(NC(=O)COc3ccccc3)C(=O)N2C1C(=O)[O-].[K+] (stereo not given)
- cytotoxicity call [1]: inactive
- cytotoxicity call [2]: inactive
- growth inhibition call [3]: active

Structure (SMILES): CN1CCN(CC(=O)N2c3ccccc3C(=O)Nc3cccnc32)CC1.Cl.Cl
- cytotoxicity call [1]: inactive
- cytotoxicity call [2]: inactive
- growth inhibition call [3]: inactive

Structure (SMILES): C[C@H](CO)N1C[C@H](C)[C@@H](CN(C)Cc2ccc(Oc3ccccc3)cc2)Oc2c(NC(=O)Nc3ccc(F)cc3)cccc2C1=O
- cytotoxicity call [1]: inactive
- cytotoxicity call [2]: inactive
- growth inhibition call [3]: inactive

Structure (SMILES): COC(=O)C1=C(C)NC(C)=C(C(=O)OCCN(C)Cc2ccccc2)C1c1cccc([N+](=O)[O-])c1.Cl (stereo not given)
- cytotoxicity call [1]: inactive
- cytotoxicity call [2]: inactive
- growth inhibition call [3]: inactive

Structure (SMILES): C[C@H](CO)N1C[C@H](C)[C@H](CN(C)S(=O)(=O)c2ccc(F)cc2)OCCCC[C@H](C)Oc2ccc(NC(=O)Nc3ccc(F)cc3)cc2C1=O
- cytotoxicity call [1]: inactive
- cytotoxicity call [2]: inactive
- growth inhibition call [3]: inactive

Structure (SMILES): Cc1cc(C(=O)Nc2cccc3c2O[C@H](CN(C)S(=O)(=O)c2cccs2)[C@H](C)CN([C@@H](C)CO)C3=O)n(C)n1
- cytotoxicity call [1]: inactive
- cytotoxicity call [2]: inactive
- growth inhibition call [3]: inactive

Structure (SMILES): Cc1noc(C)c1NC(=O)Nc1ccc2c(c1)C(=O)N([C@@H](C)CO)C[C@H](C)[C@@H](CN(C)CC1CC1)OCCCC[C@H](C)O2
- cytotoxicity call [1]: inactive
- cytotoxicity call [2]: inactive
- growth inhibition call [3]: inactive

Structure (SMILES): C[C@@H]1CN([C@@H](C)CO)S(=O)(=O)c2ccc(Br)cc2O[C@H]1CN(C)C(=O)C1CCOCC1
- cytotoxicity call [1]: inactive
- cytotoxicity call [2]: inactive
- growth inhibition call [3]: inactive

Structure (SMILES): C[C@H](O)CC(=O)O
- cytotoxicity call [1]: inactive
- cytotoxicity call [2]: inactive
- growth inhibition call [3]: inactive

Structure (SMILES): Cc1cc(/C=N/O)[nH]c(=O)n1
- cytotoxicity call [1]: inactive
- cytotoxicity call [2]: inactive
- growth inhibition call [3]: inactive

Structure (SMILES): C[C@@H]1CN([C@@H](C)CO)C(=O)c2cc(NC(=O)Nc3ccc(C(F)(F)F)cc3)ccc2O[C@@H](C)CCCCO[C@H]1CN(C)Cc1ccccc1
- cytotoxicity call [1]: active
- cytotoxicity call [2]: active
- growth inhibition call [3]: inactive

Structure (SMILES): COCC#Cc1ccc2c(c1)O[C@H](CN(C)S(=O)(=O)c1ccc(C)cc1)[C@H](C)CN([C@@H](C)CO)S2(=O)=O
- cytotoxicity call [1]: inactive
- cytotoxicity call [2]: inactive
- growth inhibition call [3]: inactive

Structure (SMILES): CN1CCN(c2nc3c(c(=O)[nH]c(=O)n3C)n2CC(=O)c2ccc(Cl)cc2)CC1
- cytotoxicity call [1]: inactive
- cytotoxicity call [2]: inactive
- growth inhibition call [3]: inactive

Structure (SMILES): Cc1cc(C(=O)Nc2cccc3c2O[C@@H](CN(C)S(=O)(=O)c2ccc(F)cc2)[C@@H](C)CN([C@@H](C)CO)C3=O)n(C)n1
- cytotoxicity call [1]: inactive
- cytotoxicity call [2]: inactive
- growth inhibition call [3]: inactive

Structure (SMILES): CC[C@@H]1OC(=O)[C@@H](C)[C@H](O[C@H]2C[C@@](C)(OC)[C@@H](O)[C@H](C)O2)[C@@H](C)[C@H](O)[C@@](C)(O[C@@H]2O[C@H](C)C[C@H](N(C)C)[C@H]2O)C[C@H](C)C(=O)[C@@H](C)[C@H](O)[C@@]1(C)O
- cytotoxicity call [1]: inactive
- cytotoxicity call [2]: inactive
- growth inhibition call [3]: active

Structure (SMILES): CC(C)NC(=O)Nc1ccc2c(c1)C(=O)N([C@H](C)CO)C[C@@H](C)[C@H](CN(C)Cc1ccc(C(F)(F)F)cc1)OCCCC[C@H](C)O2
- cytotoxicity call [1]: inactive
- cytotoxicity call [2]: active
- growth inhibition call [3]: inactive

Structure (SMILES): Clc1nccc2ccccc12
- cytotoxicity call [1]: inactive
- cytotoxicity call [2]: inactive
- growth inhibition call [3]: inactive

Structure (SMILES): C[C@H](CO)N1C[C@H](C)[C@@H](CN(C)C(=O)Nc2ccc3c(c2)OCO3)OCCCC[C@H](C)Oc2ccc(NC(=O)Nc3ccc(F)cc3)cc2C1=O
- cytotoxicity call [1]: inactive
- cytotoxicity call [2]: inactive
- growth inhibition call [3]: inactive
